By IC50 is meant the dose at which the fit gives 50% viability; a fit beyond the top or the lowest dose is shown as a bound at that dose. The AUC spans the tested range (256-fold, ending at the top dose) of the same fit: 1 means no effect, lower means more sensitive. A top dose marked as inferred comes from the curve model; the source does not state it.

Usually IC50 stands for the concentration that inhibits the measured activity by half.

Compound in this experiment: CCOc1cc2ncc(C#N)c(Nc3ccc(F)c(Cl)c3)c2cc1NC(=O)/C=C/CN(C)C [EKB-569]
As to the kind of experiment: Viability of human cancer cell lines after 72 h of drug (GDSC screen). The following applies: top dose inferred. The procedure:
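Human cancer cell lines in 384-well plates, medium with 10% serum, drug for 72 h over a 256-fold dose range (nine 2-fold or five 4-fold steps up to the top dose). Adherent lines were fixed and stained with the nucleic acid dye Syto60, suspension lines read with resazurin; signal relative to control wells, capped at 0 and 100%. One two-parameter sigmoid per drug and line, fitted in a mixed model over all curves with the slope shared within a line.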
Regarding “COLO-783 (melanoma, adherent, top dose 2.5 µM)”, the AUC came to 0.986 and the 50% inhibitory concentration (IC50) was over 2500 nM.

As for “HuO-3N1 (osteosarcoma, adherent, top dose 2.5 µM)”, the AUC worked out at 0.982 and the half-inhibitory concentration (IC50) is over 2500 nM.

As for “YH-13 (glioma, adherent, top dose 2.5 µM)”, the AUC stood at 0.937 and the concentration for half-maximal inhibition (IC50) is over 2500 nM.

Take “MFM-223 (breast, adherent, top dose 2.5 µM)”: the AUC was found to be 0.973 and the IC50 was over 2500 nM.

In the case of “TK (B-cell lymphoma, suspension, top dose 2.5 µM)”, the AUC amounted to 0.95 and the half-maximal inhibitory concentration (IC50) is over 2500 nM.

As to “NCI-H2087 (lung adenocarcinoma, semi-adherent, top dose 20 µM)”, the AUC is 0.665 and the IC50 is 3730 nM.

“COLO-678 (large intestine, semi-adherent, top dose 2.5 µM)”: the AUC came out at 0.958 and the IC50 was over 2500 nM.

“SW1463 (large intestine, adherent, top dose 2.5 µM)”: the AUC is 0.565 and the concentration for half-maximal inhibition (IC50) worked out at 266 nM.

As to “SW1088 (glioma, adherent, top dose 2.5 µM)”, the AUC turned out to be 0.952 and the concentration for half-maximal inhibition (IC50) is over 2500 nM.

For “WM793B (melanoma, adherent, top dose 2.5 µM)”, the AUC worked out at 0.877 and the concentration for half-maximal inhibition (IC50) was over 2500 nM.

In the case of “LK-2 (lung squamous cell carcinoma, adherent, top dose 2.5 µM)”, the AUC stood at 0.982 and the IC50 was over 2500 nM.

Regarding “MFE-280 (endometrium, adherent, top dose 2.5 µM)”, the AUC was 0.798 and the IC50 turned out to be 1580 nM.

“OCI-LY-19 (B-cell lymphoma, suspension, top dose 2.5 µM)”: the AUC turned out to be 0.569 and the IC50 came to 238 nM.

For the cell line “LC-2-ad (lung adenocarcinoma, adherent, top dose 2.5 µM)”, the AUC was 0.831 and the concentration for half-maximal inhibition (IC50) turned out to be 1650 nM.

Turning to “WSU-DLCL2 (B-cell lymphoma, suspension, top dose 2.5 µM)”, the AUC amounted to 0.916 and the half-inhibitory concentration (IC50) was over 2500 nM.

For the cell line “PCI-38 (head and neck, adherent, top dose 2.5 µM)”, the AUC worked out at 0.954 and the IC50 is over 2500 nM.

On to “VMRC-RCZ (kidney, adherent, top dose 2.5 µM)”, for which the AUC stood at 0.845 and the half-maximal inhibitory concentration (IC50) was determined as 2280 nM.

With “NCI-H2029 (small cell lung carcinoma, adherent, top dose 2.5 µM)”, the AUC is 0.992 and the IC50 is over 2500 nM.

On to “COLO-205 (large intestine, suspension, top dose 2.5 µM)”, for which the AUC was determined as 0.965 and the half-maximal inhibitory concentration (IC50) is over 2500 nM.

As for “EW-13 (Ewing sarcoma, suspension, top dose 2.5 µM)”, the AUC amounted to 0.78 and the IC50 was 1140 nM.

As for “EFM-192A (breast, adherent, top dose 2.5 µM)”, the AUC worked out at 0.966 and the half-maximal inhibitory concentration (IC50) was over 2500 nM.

With “CFPAC-1 (pancreas, adherent, top dose 2.5 µM)”, the AUC came out at 0.95 and the half-inhibitory concentration (IC50) is over 2500 nM.

Take “CAL-54 (kidney, adherent, top dose 2.5 µM)”: the AUC is 0.928 and the 50% inhibitory concentration (IC50) is over 2500 nM.

A388 (skin, adherent, top dose 2.5 µM): the AUC stood at 0.829 and the 50% inhibitory concentration (IC50) worked out at 1890 nM.

Consider “HCC-827 (lung adenocarcinoma, adherent, top dose 2.5 µM)”, for which the AUC was found to be 0.282 and the IC50 amounted to 34 nM.

In the case of “SK-N-FI (neuroblastoma, adherent, top dose 2.5 µM)”, the AUC is 0.959 and the IC50 is over 2500 nM.

In the case of “MDA-MB-436 (breast, adherent, top dose 2.5 µM)”, the AUC came to 0.983 and the IC50 is over 2500 nM.

(Values after the supplement of paper PMC4967469.)
